These results are taken from PubChem BioAssay (NCATS).

This is one part of the list. These are further read-outs of the screen, such as a control signal, another cell line or another target. No call is given for them. Compounds called inactive in the main read-out are mostly missing here. The note in brackets gives the kind of curve behind each potency; many fits are weak.
Tags describe the fitted curve by direction and shape.

The test can be described thus: qHTS Assay for Lipid Storage Modulators (AID 1519). The note with it: Drosophila S3 cells, BODIPY lipid droplet/cell ratio, laser cytometry; measured here: lipid (BODIPY) channel AC50; cells loaded with oleic acid. Summed up:
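Cells seeded at 5,000 per well were treated with compounds over a concentration series and loaded with oleic acid (400 uM, as added). Lipid droplet fluorescence (488 nm excitation, 500-530 nm channel) was read by laser-scanning cytometry and normalized to 20 uM Triacsin C.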
In general terms: Quantitative high-throughput screening tests each substance at several concentrations.
Broadly, the AC50 is the concentration at which the activity in the assay is half-maximal. As to `CS(=O)(=O)N1CCC[C@@]2(CCN(c3ncccn3)C2)C1`, the AC50 is 15.8 µM [rising, partial curve].
As to `COc1ccc(-c2cc(=O)c3ccccc3o2)cc1`, the AC50 was 0.0141 µM [rising, full curve].
Under `O=c1cc(-c2ccc(O)cc2O)oc2ccccc12` stands 12.6 µM [rising, partial curve]; under `O=C(O)c1nc2cc(Cl)c(Cl)cc2[nH]c1=O`, 0.316 µM [rising, full curve, poor fit].
Under `Cc1cnc(CNc2cc(-c3ccccc3CN(C)C)ncn2)cn1` stands 17.8 µM [rising, single point].
For the molecule `O=c1c(-c2cccc(F)c2)nc2cncnc2n1Cc1ccccc1Cl`, the AC50 was 0.1 µM [rising, full curve, poor fit].
For the molecule `O=C(O)[C@H]1[C@H]2C[C@H]3c4[nH]c5ccccc5c4CCN3C[C@@H]2CC[C@@H]1O`, the AC50 is 14.1 µM [rising, partial curve, poor fit].
The figure for `CN(Cc1ccco1)c1ncncc1-c1ccccc1C(F)(F)F` is 7.94 µM [rising, partial curve, poor fit]; for `CN(C)c1ncc2nc(-c3ccccc3)c(=O)n(CCC#N)c2n1` it is 0.631 µM [rising, full curve]; for `O=c1cnc2cnc(Oc3ccccc3)nc2n1Cc1ccc(F)cc1` it is 17.8 µM [rising, partial curve, poor fit].
Under `CS(=O)(=O)Nc1cccc(-c2ccc3ncnc(N4CCOCC4)c3c2)c1` stands 39.8 µM [falling, single point].
The figure for `Cn1c(=O)c(-c2ccc(Cl)cc2)nc2cnc(Oc3ccccc3)nc21` is 0.501 µM [rising, full curve, poor fit]; for `O=c1c(-c2cc(F)cc(F)c2)nc2cnc(N3CCOCC3)nc2n1-c1ccccc1` it is 0.0178 µM [rising, full curve, poor fit]; for `CC(C)[C@@H]1C(=O)N(S(C)(=O)=O)[C@H]2CCN(C(=O)/C=C\CN3CCCCC3)[C@@H]12` it is 10 µM [falling, partial curve, poor fit].
For `O=C(c1cnccn1)N1CCC2(CCCN(Cc3nccs3)C2)CC1`, the AC50 is 0.01 µM [rising, full curve].
Under `Cc1noc(C)c1-c1nc(NCc2ccccc2)c2ccccc2n1` stands 0.0224 µM [rising, full curve, poor fit]; under `CCCCCCCCCCCCCCCC[N+](C)(C)CCN(Cc1ccc(OC)cc1)c1ncccn1`, 15.8 µM [falling, partial curve, poor fit].
Consider `COc1cccc(Cn2c(=O)c(-c3cc(F)cc(F)c3)nc3cncnc32)c1`, for which the AC50 was 0.112 µM [rising, full curve, poor fit].
Under `O=c1cc(-c2ccc(O)cc2)oc2cccc(O)c12` stands 31.6 µM [rising, partial curve, poor fit]; under `N#Cc1cccc(NC(=O)N2CCCC3(CCN(C(=O)c4cc(C(F)(F)F)cc(C(F)(F)F)c4)CC3)C2)c1`, 0.282 µM [rising, full curve, poor fit].
Turning to `C1COC(NC(C2CC2)C2CC2)=N1`, the AC50 was 2.51 µM [rising, full curve, poor fit].
The figure for `CC(C)NC(=O)N1CCC2(CC1)CCN(C(=O)c1cccn1C)CC2` is 15.8 µM [rising, single point]; for `O=C(c1cnccn1)N1CCC2(CC1)CCN(c1cccc(-c3ccccc3)c1)CC2` it is 0.0398 µM [rising, full curve, poor fit].
Under `Cc1cnc(CNc2ncncc2-c2ccccc2C)cn1` stands 39.8 µM [rising, partial curve]; under `COc1ccccc1N1CCN(CCN2C(=O)c3ccccc3C(C)(C)C2=O)CC1`, 12.6 µM [rising, partial curve]; under `O=c1c(-c2ccc(Cl)cc2)nc2cnc(N3CCNCC3)nc2n1CCc1ccccc1`, 39.8 µM [falling, single point].
`CN1CCN2c3ccccc3Cc3ccccc3[C@@H]2C1`: the AC50 was 3.98 µM [rising, single point].
Consider `COCCn1c(=O)cnc2cnc(Oc3cccc(Cl)c3)nc21`, for which the AC50 is 11.2 µM [rising, partial curve, poor fit].
On to `Cc1ccccc1-c1nc(NC2CC2)c2ccccc2n1`, for which the AC50 was 0.00708 µM [rising, full curve, poor fit].
On to `COC(=O)N1CCC2(CC1)CCN(c1cccc(-c3ccccc3)c1)CC2`, for which the AC50 was 4.47 µM [rising, partial curve, poor fit].
